# According to the supplement of paper PMC3334620:
# Over roughly 33,000 sequences, “E-score (-0.5 to 0.5)” has its median near -0.01; the highest 2% begin near 0.26. This is one part of the list.
# Biological target: Ste12 (UniProt P13574)
# Experiment: PBM E-score (8-mer binding enrichment) (E-score (-0.5 to 0.5)); higher = stronger / more preferred TF binding; most listed sequences are background and not binding sites
# Details: protein concentration: 200 nM; construct: GST-DNA-binding domain
# In short: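 Bound GST-tagged yeast transcription factors, applied at about 100-200 nM to double-stranded universal all-10-mer Agilent arrays, were detected with fluorescent anti-GST. Scans were normalised with masliner. A modified Wilcoxon-Mann-Whitney statistic, the E-score, was assigned to each ungapped eight-base word pooled with its reverse complement by the Universal PBM Analysis Suite.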
row,Sequence,PBM E-score
1,GTCCAGAA,0.0636
2,GCGGCGGA,0.144
3,ATGACTGG,-0.19
4,CCGTCCCG,-0.0167
5,GAGCTATC,-0.174
6,CCTTATGC,-0.0439
7,CTAGGAAA,-0.0731
8,TGCATTAA,0.134
9,TCTTACCA,-0.00575
10,AGGGACGA,-0.00547
11,CAAGTAGA,0.0983
12,CCGGCAAC,0.0592
13,CGGGCTAA,-0.151
14,ACCCCGAC,0.0306
15,AGTCGAGG,-0.12
16,TAATAGAA,0.248
17,ACTTACCA,0.014
18,CCTTGGGA,-0.111
19,ATATAGAA,0.179
20,GTAGACTA,-0.334
21,CTCAACTA,0.0428
22,AGGGTCAG,-0.197
23,AGACAGAC,0.165
24,AGCCTGGA,0.00174
25,AATCCCTA,-0.0809

row,Sequence,PBM E-score
1,AGGGCTAG,-0.206
2,ACTATCCT,-0.0072
3,GAACGAAC,-0.0437
4,AAAGTCCA,-0.00749
5,ACTTCCTG,0.0914
6,GAATCAAA,0.168
7,ATACTTAC,0.0534
8,CGATGCAG,0.0009
9,GCCTCAAC,-0.103
10,TAATGCCA,0.0259
11,ACTTATCA,0.111
12,ATAAGGGG,0.0195
13,TCTATCCA,-0.0703
14,TAGACACA,-0.292
15,AGTTGTCA,0.16
16,AGCTATTG,-0.173
17,CAGGGGGG,-0.184
18,AGGTGTTC,-0.0573
19,CCTACCGC,-0.092
20,CAGAGGGA,-0.24
21,CGGAACAC,0.144
22,AGTCGTTG,-0.295
23,ATACGCGC,0.0383
24,ATGTCGCA,0.184
25,GCGATATA,-0.0904

row,Sequence,PBM E-score
1,AAGAAGAA,0.123
2,TACATAGA,0.0766
3,AGCCTCCG,-0.239
4,CTCTACGA,-0.171
5,CCACGCTA,-0.182
6,CAGTGTCA,0.0763
7,CCGTTTCA,0.46
8,ACAGGTTG,0.0928
9,ATGGAAAG,0.141
10,GCAACCGC,-0.184
11,ACGCAAGA,-0.0677
12,GATTGGAA,0.0582
13,GATACTAA,0.204
14,AAGTCATA,0.149
15,AGAGGGGA,-0.0217
16,GTCTCACA,0.238
17,AACCGGCG,0.247
18,CCATCCTC,-0.204
19,CAAAGATG,0.0187
20,TCCTCGCA,0.0289
21,AACTTTGA,0.218
22,AGGAAAGA,0.0338
23,ACCCGTCG,-0.231
24,CGCATCTC,-0.0954
25,AGCACTCG,-0.119

row,Sequence,PBM E-score
1,AGTCCTGG,-0.153
2,ACGGATAA,0.117
3,CCACTTCC,0.0667
4,AGTTTGAC,0.0398
5,ATCAAGAC,-0.0152
6,CTGCTGCA,-0.0333
7,CGCAGAAC,-0.122
8,CATTTCGG,-0.00058
9,GAAACACA,0.408
10,GACCCATC,0.0104
11,CGCGGAAA,0.136
12,CAGCGACA,-0.0114
13,AATTAGAG,0.0381
14,AAAAAGCT,0.116
15,CTCACTAC,0.00581
16,CTAGTTGA,0.175
17,CCCTGTAA,0.0396
18,CCTCGTCA,0.13
19,ACTCAGTG,-0.0704
20,AGTACATA,-0.182
21,GCAGTTCC,0.025
22,ATTCTCAA,0.252
23,CAGCTTGA,0.0235
24,AGTCTAAG,0.0673
25,ATATATGG,0.0448

row,Sequence,PBM E-score
1,ACCATATC,-0.0602
2,AGGTTAAA,0.256
3,CGAGGGCG,-0.0698
4,ACACAGAC,-0.0967
5,TCCTCAAA,0.00931
6,CGCTCCCC,-0.213
7,ACGATTCA,-0.0523
8,AGGGTAAT,0.0656
9,AAATGCTA,0.0451
10,AGAATATA,0.0722
11,AACGGGCA,0.0332
12,AATGCATC,-0.141
13,GGCCGACC,-0.123
14,TATGCAAA,-0.039
15,ACTTGTCC,-0.11
16,ATTAGCGA,0.0876
17,ATTACATC,0.0678
18,CTAAGGTA,0.0326
19,AATACGTC,0.086
20,CTTACGCA,-0.146
21,CGGAGGCC,-0.195
22,CACTGGCA,-0.128
23,TCATACAA,0.112
24,CCAGCTCG,-0.132
25,ATATTCTG,0.0613

row,Sequence,PBM E-score
1,CTATTGAA,-0.0235
2,CGGGGACC,-0.0441
3,AAGCATTC,-0.096
4,ATTCCGAG,0.119
5,ACGCTTAG,-0.167
6,AATCGTCT,0.0938
7,AGACTACA,-0.32
8,CAGGTTCG,-0.00185
9,AGTGTATG,0.0334
10,AGGCGTCA,-0.141
11,TTAAGTAA,0.189
12,CTAAGGAC,-0.14
13,ATTTATGC,0.149
14,GACAAAAC,0.153
15,AGCCGCAG,-0.239
16,GAGAGACA,-0.156
17,CGTAATCC,0.0832
18,ACTGTACC,-0.118
19,AGGGGATC,-0.112
20,ATTGTCAG,0.0743
21,AGCGACCC,-0.00194
22,GTCTGCAA,-0.199
23,AGGTATAT,0.0165
24,ACAAGCCT,-0.159
25,TAGTGACA,-0.0814

row,Sequence,PBM E-score
1,GGTAGCTA,-0.14
2,AGATAAGG,0.084
3,GGGCCTGA,-0.106
4,CACTCGCC,-0.0182
5,AGGGCATG,-0.0523
6,AGCCTACA,-0.105
7,ACCGTGAA,-0.0267
8,ACCTCAGC,-0.11
9,CTTGCCGA,-0.221
10,CCGCACCG,-0.0232
11,ATTAGCTC,-0.0874
12,ATAACCTA,0.166
13,ACACGCTC,-0.0269
14,GGGGCGCA,-0.0246
15,ACATTGAA,0.199
16,ATCTAGCC,-0.297
17,CAGACTCG,-0.218
18,ATCTTCAA,0.118
19,AATATGAG,0.11
20,AAGGAATG,0.118
21,GACGAATA,0.138
22,CGTACAGA,-0.251
23,ACTGATGG,-0.169
24,AGTGCCAG,-0.121
25,ACGTAGTA,-0.189

row,Sequence,PBM E-score
1,ACGGGCGA,-0.0954
2,ACAGGTGC,-0.14
3,ATGTCATC,0.0215
4,CACGAAGA,0.085
5,CAACAGCC,-0.0347
6,CCGGTACA,0.0491
7,ACGGCAGC,0.144
8,CGTAGTGA,-0.213
9,ACATACTC,-0.0469
10,AATGTAGC,0.126
11,GACACCAC,-0.174
12,AGATAAAT,0.131
13,AGGAGGGA,-0.0567
14,GTTTCAAA,0.47
15,AGGTCGCA,-0.158
16,GTCCGGAA,-0.0712
17,ACTAGGCA,-0.129
18,CATCGTGG,0.0956
19,ACCGTGGG,-0.0959
20,TGCAGTAA,0.0362
21,ATTGGGTG,0.222
22,ATTTTGCC,0.116
23,ACAGAGAT,0.0239
24,CACGCACG,-0.19
25,ATTTGCAA,0.087

row,Sequence,PBM E-score
1,ATCACTAC,-0.117
2,TGTCTTAA,-0.0432
3,AGTTCGGA,0.0538
4,AACACCGC,0.0776
5,AAAATCAA,0.146
6,GGAACGCC,-0.017
7,ACGGCCTG,-0.105
8,CCACCTGA,0.145
9,GCAGCTCA,-0.172
10,CAGCGATC,-0.00075
11,TGATAACA,0.137
12,ACTGCGTG,-0.191
13,GCAATCTA,-0.0416
14,TAAAGAGA,0.0126
15,GTCACTCA,0.0601
16,CAGGCGGA,0.0481
17,GATTGGAC,-0.0765
18,ATCCGTCG,-0.0398
19,TAATCCCA,-0.00372
20,CCTAGAAC,0.0121
21,CCTATCTA,-0.0667
22,AAAACCAG,0.228
23,ATGGAATA,0.117
24,CGCCTCAG,-0.0219
25,ATTTGATC,0.0321

row,Sequence,PBM E-score
1,AATACCCC,0.036
2,CCACTAAA,0.0683
3,ACAACGCA,0.0218
4,AGTTGGAG,-0.0262
5,GCAACCAC,0.0313
6,ACCCATTG,-0.00501
7,ACGTTGCC,-0.202
8,CTGGTCTC,-0.259
9,GAACTGAC,-0.0881
10,ATATTGCG,0.148
11,ACTCATTA,0.136
12,ACAGAGCA,0.156
13,GTCCTCGA,-0.18
14,AATATCTC,0.127
15,CAACGCGC,0.00398
16,AGCAACAA,0.0907
17,ACGGTGAT,-0.122
18,AAAGCACA,0.028
19,GGTTACAA,0.284
20,AATACATA,0.218
21,AACGGGCG,-0.0159
22,AACCTGCA,0.0338
23,GGATAAAC,0.135
24,AAACTAGC,-0.0237
25,GAGAATAA,0.182

row,Sequence,PBM E-score
1,CCCCGTGA,-0.0997
2,CGCAGGTC,-0.144
3,AAGAAATC,-0.0981
4,CATTAGAC,-0.0855
5,GCTCATGA,-0.145
6,GAGGGGTA,0.0428
7,AGAGCGAA,-0.099
8,CTGAGACC,0.152
9,GATCTCAA,0.077
10,ACTGGCAC,-0.162
11,AGTGCCAA,-0.0734
12,GGATGGCC,-0.313
13,AGCGAGTA,0.021
14,ATACCTAA,0.179
15,ATACGCCG,0.204
16,TATAAATA,0.228
17,GGGTTTAC,-0.0107
18,CCAGGAAG,-0.122
19,GCTAGTAC,-0.173
20,AACTGTAT,0.134
21,CCTCATAG,-0.0735
22,AGAGGCAG,-0.14
23,AATAGTGA,0.00582
24,AGCACGTG,-0.122
25,AGGGAGTG,-0.107

row,Sequence,PBM E-score
1,ACTAGCCC,-0.00126
2,TCATCGCA,0.0489
3,CTGGCTCC,-0.256
4,AGAGCCTC,-0.172
5,ACGGGAAG,-0.144
6,GTTCCTTA,-0.0482
7,CAGAGTAA,-0.0561
8,CAGAGATA,0.00937
9,AATGCGTC,-0.134
10,CGGCTACC,-0.156
11,AAGAAAGC,-0.0303
12,AACTCCGT,0.0594
13,AGTTCGAT,-0.117
14,AATGGGGG,-0.187
15,ACAGCCAT,0.0226
16,AGAATGGC,-0.0721
17,ACAACACA,0.138
18,CAACCGAA,0.0797
19,GCGGGTAC,-0.0992
20,ACGGTAAG,-0.0485
21,AAGGGACC,-0.132
22,AACGAAAT,0.169
23,AGGCAACT,0.0276
24,TATCCTCA,-0.0222
25,AACTCAAA,0.266

row,Sequence,PBM E-score
1,AAGCGACG,-0.144
2,ATCTGTAG,-0.0894
3,TACACGGA,0.153
4,GCCACAGC,-0.299
5,GCAGTACC,-0.0188
6,CAGGGCAC,-0.139
7,CGATGGCC,-0.0786
8,CTCGACTA,0.0414
9,AGGGGCCA,0.019
10,AGTAATAG,0.0705
11,TCAGATGA,0.197
12,CGTAAGCC,0.00046
13,GTAGGTGA,0.0465
14,CTGTACAA,-0.176
15,TACGGAGA,-0.163
16,TGACGAAA,0.219
17,GATCGCGA,0.0426
18,GCGCTCTA,0.00062
19,TAACGCGA,0.0877
20,CCGGTAAG,-0.172
21,GGTTTCGA,0.193
22,ATGGGGAG,-0.033
23,AGATTGTA,0.166
24,AAAAAGCC,0.229
25,TATCTAAA,0.26

row,Sequence,PBM E-score
1,AAAGGACG,-0.0996
2,AAAAATTG,0.263
3,TGACTGCA,-0.193
4,CTGGAGAC,-0.224
5,TCCTGCAA,-0.166
6,CGTACGCA,-0.0563
7,GGGGCGAC,0.00253
8,CGACATAG,-0.159
9,TGGCATAA,0.307
10,AACCATTC,-0.00154
11,CAATGCCA,-0.01
12,CGTTCTTA,0.0228
13,ACATCGCC,0.0237
14,AATCAACT,0.0774
15,CAAATAAC,0.283
16,CGCCATAC,0.0498
17,CCGAAGTA,-0.157
18,AGTTTTAT,0.275
19,TAGAAGAA,0.132
